Substitutions are numbered along the chain they refer to. Like-named read-outs stand apart in the source and are kept apart here.
T1: human VEGF-A (human, UniProt P15692-4 27-191)
T1 sequence (looked up): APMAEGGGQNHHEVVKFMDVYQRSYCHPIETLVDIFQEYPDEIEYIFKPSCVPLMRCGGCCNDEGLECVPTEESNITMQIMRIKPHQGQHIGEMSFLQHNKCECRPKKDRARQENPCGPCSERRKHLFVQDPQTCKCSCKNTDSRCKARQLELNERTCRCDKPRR

B1: TPP-14940 (bispecific antibody, human IgG1, kappa)
light: DIQLTQSPSSLSASVGDRVTITCSASQDISNYLNWYQQKPGKAPKVLIYFTSSLHSGVPSRFSGSGSGTDFTLTISSLQPEDFATYYCQQYSTVPWTFGQGTKVEIKRTVAAPSVFIFPPSDEQLKSGTASVVCLLNNFYPREAKVQWKVDNALQSGNSQESVTEQDSKDSTYSLSSTLTLSKADYEKHKVYACEVTHQGLSSPVTKSFNRGEC
heavy: EVQLVESGGGLVQPGGSLRLSCAASGYDFTHYGMNWVRQAPGKGLEWVGWINTYTGEPTYAADFKRRFTFSLDTSKSTAYLQMNSLRAEDTAVYYCAKYPYYYGTSHWYFDVWGQGTLVTVSSASTKGPSVFPLAPSSKSTSGGTAALGCLVKDYFPEPVTVSWNSGALTSGVHTFPAVLQSSGLYSLSSVVTVPSSSLGTQTYICNVNHKPSNTKVDKRV[in this place human IgG1 Fc with changes]GGSEGKSSGSGSESKSTGGSQVQLVQSGAEVKKPGASVKVSCKASGYTFTNYDIIWVRQAPGQGLEWMGYINPYNDGTKYNEKFKGRVTMTRDTSTSTVYMELSSLRSEDTAVYYCARLLKYRRFRYYAIDYWGQGTTVTVSSGGSEGKSSGSGSESKSTGGSDIQMTQSPSSLSASVGDRVTITCRTSENVYSNLAWYQQKPGKAPKLLIYAASNLQSGVPSRFSGSGSGTDYTFTISSLQPEDIATYYCQHFWGSPFTFGQGTKLEIK
B2: TPP-14941 (bispecific antibody, human IgG1, kappa)
light: B1 light
heavy: EVQLVESGGGLVQPGGSLRLSCAASGYDFTHYGMNWVRQAPGKGLEWVGWINTYTGEPTYAADFKRRFTFSLDTSKSTAYLQMNSLRAEDTAVYYCAKYPYYYGTSHWYFDVWGQGTLVTVSSASTKGPSVFPLAPSSKSTSGGTAALGCLVKDYFPEPVTVSWNSGALTSGVHTFPAVLQSSGLYSLSSVVTVPSSSLGTQTYICNVNHKPSNTKVDKRV[in this place human IgG1 Fc with changes]GGSEGKSSGSGSESKSTGGSDIQMTQSPSSLSASVGDRVTITCRTSENVYSNLAWYQQKPGKAPKLLIYAASNLQSGVPSRFSGSGSGTDYTFTISSLQPEDIATYYCQHFWGSPFTFGQGTKLEIKGGSEGKSSGSGSESKSTGGSQVQLVQSGAEVKKPGASVKVSCKASGYTFTNYDIIWVRQAPGQGLEWMGYINPYNDGTKYNEKFKGRVTMTRDTSTSTVYMELSSLRSEDTAVYYCARLLKYRRFRYYAIDYWGQGTTVTVSS
B3: TPP-19988 (bispecific antibody, human IgG1, kappa)
light: B1 light
heavy: EVQLVESGGGLVQPGGSLRLSCAASGYDFTHYGMNWVRQAPGKGLEWVGWINTYTGEPTYAADFKRRFTFSLDTSKSTAYLQMNSLRAEDTAVYYCAKYPYYYGTSHWYFDVWGQGTLVTVSSASTKGPSVFPLAPSSKSTSGGTAALGCLVKDYFPEPVTVSWNSGALTSGVHTFPAVLQSSGLYSLSSVVTVPSSSLGTQTYICNVNHKPSNTKVDKRV[in this place human IgG1 Fc with changes]GGGGSGGGGSDIQMTQSPSSLSASVGDRVTITCRTSENVYSNLAWYQQKPGKAPKLLIYAASNLQSGVPSRFSGSGSGTDYTFTISSLQPEDIATYYCQHFWGSPFTFGQGTKLEIKGGSEGKSSGSGSESKSTGGSQVQLVQSGAEVKKPGASVKVSCKASGYTFTNYDIIWVRQAPGQGLEWMGYINPYNDGTKYNEKFKGRVTMTRDTSTSTVYMELSSLRSEDTAVYYCARLLKYRRFRYYAIDYWGQGTTVTVSS
B4: TPP-19989 (bispecific antibody, human IgG1, kappa)
light: B1 light
heavy: EVQLVESGGGLVQPGGSLRLSCAASGYDFTHYGMNWVRQAPGKGLEWVGWINTYTGEPTYAADFKRRFTFSLDTSKSTAYLQMNSLRAEDTAVYYCAKYPYYYGTSHWYFDVWGQGTLVTVSSASTKGPSVFPLAPSSKSTSGGTAALGCLVKDYFPEPVTVSWNSGALTSGVHTFPAVLQSSGLYSLSSVVTVPSSSLGTQTYICNVNHKPSNTKVDKRV[in this place human IgG1 Fc with changes]GGGGSGGGGSGGGGSGGGGSDIQMTQSPSSLSASVGDRVTITCRTSENVYSNLAWYQQKPGKAPKLLIYAASNLQSGVPSRFSGSGSGTDYTFTISSLQPEDIATYYCQHFWGSPFTFGQGTKLEIKGGSEGKSSGSGSESKSTGGSQVQLVQSGAEVKKPGASVKVSCKASGYTFTNYDIIWVRQAPGQGLEWMGYINPYNDGTKYNEKFKGRVTMTRDTSTSTVYMELSSLRSEDTAVYYCARLLKYRRFRYYAIDYWGQGTTVTVSS
B5: TPP-22214 (bispecific antibody, human IgG1, kappa)
light: B1 light with D70G
heavy: QVQLVESGGGLVQPGGSLRLSCAASGYDFTHYGMNWVRQAPGKGLEWVGWINTYTGEPTYAADFKRRFTFSLDTSKSTAYLQMNSLRAEDTAVYYCAKYPYYYGTSHWYFDVWGQGTLVTVSSASTKGPSVFPLAPSSKSTSGGTAALGCLVKDYFPEPVTVSWNSGALTSGVHTFPAVLQSSGLYSLSSVVTVPSSSLGTQTYICNVNHKPSNTKVDKRV[in this place human IgG1 Fc with changes]GGGGSGGGGSDIQMTQSPSSLSASVGDRVTITCRTSENVYSNLAWYQQKPGKAPKLLIYAASNLQSGVPSRFSGSGSGTDYTFTISSLQPEDIATYYCQHFWGSPFTFGCGTKLEIKGGSEGKSSGSGSESKSTGGSQVQLVQSGAEVKKPGASVKVSCKASGYTFTNYDIIWVRQAPGQCLEWMGYINPYNDGTKYNEKFKGRVTMTRDTSTSTVYMELSSLRSEDTAVYYCARLLKYRRFRYYAIDYWGQGTTVTVSS

Columns and labels:
Experiment in all cases: cell-based or functional assay
human VEGF-A [1] = target: T1, human VEGF-A
human VEGF-A [2] = target: T1, human VEGF-A; remark: listed apart in the source
human VEGF-A [3] = target: T1, human VEGF-A; remark: listed apart in the source
human TrkB receptor [4] = target: T2, human TrkB receptor (human, UniProt Q16620 32-822)
human TrkB receptor [5] = target: T2, human TrkB receptor; remark: listed apart in the source
T2 sequence (Q16620 32-822): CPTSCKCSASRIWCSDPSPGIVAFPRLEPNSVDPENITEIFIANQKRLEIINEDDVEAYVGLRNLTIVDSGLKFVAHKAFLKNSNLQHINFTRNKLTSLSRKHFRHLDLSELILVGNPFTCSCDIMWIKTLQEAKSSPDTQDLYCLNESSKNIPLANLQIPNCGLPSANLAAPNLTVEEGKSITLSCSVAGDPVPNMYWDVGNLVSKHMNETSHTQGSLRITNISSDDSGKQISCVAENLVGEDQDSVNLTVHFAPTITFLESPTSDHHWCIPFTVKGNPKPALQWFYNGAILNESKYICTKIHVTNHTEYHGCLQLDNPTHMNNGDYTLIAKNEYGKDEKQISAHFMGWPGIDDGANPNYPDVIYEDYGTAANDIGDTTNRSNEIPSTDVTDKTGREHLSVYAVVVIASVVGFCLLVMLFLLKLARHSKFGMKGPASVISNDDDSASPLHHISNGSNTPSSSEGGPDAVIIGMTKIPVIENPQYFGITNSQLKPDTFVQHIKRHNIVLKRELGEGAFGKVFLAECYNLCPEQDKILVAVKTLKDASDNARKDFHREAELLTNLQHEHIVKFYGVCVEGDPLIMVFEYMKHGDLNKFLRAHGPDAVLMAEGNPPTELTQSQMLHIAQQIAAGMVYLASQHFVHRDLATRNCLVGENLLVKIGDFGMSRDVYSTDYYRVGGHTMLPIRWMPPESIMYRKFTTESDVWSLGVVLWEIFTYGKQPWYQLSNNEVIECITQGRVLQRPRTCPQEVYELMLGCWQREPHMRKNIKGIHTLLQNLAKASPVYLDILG

human TrkB receptor [6] = target: T2, human TrkB receptor; remark: listed apart in the source
human VEGF-A [7] = target: T1, human VEGF-A; remark: listed apart in the source
human VEGF-A [8] = target: T1, human VEGF-A; remark: listed apart in the source
human VEGF-A [9] = target: T1, human VEGF-A; remark: listed apart in the source
human VEGF-A [10] = target: T1, human VEGF-A; remark: listed apart in the source

Binder | Bottom plateau (ERK1/2 phosphorylation, counts) (human VEGF-A [1]) [counts] | Bottom plateau (Src phosphorylation, counts) (human VEGF-A [1]) [counts] | IC50 (ERK1/2 phosphorylation) (human VEGF-A [1]) [nM] | IC50 (Src phosphorylation) (human VEGF-A [1]) [nM] | concentration for full inhibition of VEGF-induced HRMEC proliferation (human VEGF-A [2]) [nM] | fold better IC50 than Ranibizumab scFv or TPP-11736 (human VEGF-A [2]) [fold] | Bottom plateau (ERK1/2 phosphorylation, counts) (human VEGF-A [3]) [counts] | Bottom plateau (Src phosphorylation, counts) (human VEGF-A [3]) [counts] | IC50 (ERK1/2 phosphorylation) (human VEGF-A [3]) [nM] | IC50 (Src phosphorylation) (human VEGF-A [3]) [nM] | EC50 (pERK) (human TrkB receptor [5]) [nM] | EC50 (pTrkB) (human TrkB receptor [5]) [nM] | other results
B1 | 438 | 4770 | 0.802 | 0.276 | 0.25 | 10 | 438 | 4770 | 0.802 | 0.276 | – | – | EC50 (pERK) (human TrkB receptor [4]): 0.475 nM; EC50 (pTrkB) (human TrkB receptor [4]): 3.21 nM
B2 | 1150 | 4370 | 0.43 | 0.393 | 0.25 | 10 | 1150 | 4370 | 0.43 | 0.393 | 1.29 | 6.28 | –
B3 | – | – | – | – | – | – | – | – | – | – | 2.05 | 7.83 | –
B4 | – | – | – | – | – | – | – | – | – | – | 1.77 | 7.37 | –
B5 | – | – | – | – | 0.25 | – | – | – | – | – | – | – | TrkB-phosphorylation efficacy (AlphaLISA counts) (human TrkB receptor [6]): 5100 AlphaLISA counts; TrkB-phosphorylation efficacy relative to parental clone without CC bridge (%) (human TrkB receptor [6]): 121%; TrkB-phosphorylation potency (EC50, nM) (human TrkB receptor [6]): 2.18 nM; ERK1/2 phosphorylation: IC50 (human VEGF-A [7]): 0.415 nM; ERK1/2 phosphorylation: LogIC50 (human VEGF-A [7]): -9.38; Src phosphorylation (Y419): IC50 (human VEGF-A [8]): 0.426 nM; Src phosphorylation (Y419): LogIC50 (human VEGF-A [8]): -9.03; HRMEC proliferation Delta (area under the curve vs. basal): IC50 (pM) (human VEGF-A [9]): 88.7 pM; HRMEC proliferation Delta (area under the curve vs. basal): LogIC50 (human VEGF-A [9]): -10.1; p38-MAPK phosphorylation (T180/Y182): IC50 (human VEGF-A [10]): 0.472 nM; p38-MAPK phosphorylation (T180/Y182): LogIC50 (human VEGF-A [10]): -9.33
